The RNAGym collection of RNA variant scans (doi:10.1073/pnas.2313332121)
Variants at the background level are over-represented here.

B1: TPR 5TU (parent)
chain: GGAUCUUCUCGAUCUAACAAAAAAGACAAAUCUGCCACAAAGCUUGAGAGCAUCUUCGGAUGCAGAGGCGGCAGCCUUCGGUGGCGCGAUAGCGCCAACGUUCUCAACUAUGACACGCAAAACGCGUGCUCCGUUGAAUGGAGUUUAUCAUG

Variants of: B1
Experiment: polymerase ribozyme fitness, log enrichment relative to wild type (log ratio); higher = more active; in vitro selection for triplet polymerase activity
Outline: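 PCR was used to build mutant libraries for each subunit of a heterodimeric triplet polymerase ribozyme, which were then transcribed. A single in vitro selection round, in triplicate, used a frozen incubation at −7 °C and recovered extended constructs by gel excision, streptavidin beads and RT-PCR. Fitness is the logarithm of genotype enrichment relative to wild-type enrichment, averaged over replicates with inverse-variance weights. The logarithm is base 2, and after Illumina sequencing only genotypes with ≥10 input reads and ≥1 read per output were kept.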
For A28U U56C C79A, the “polymerase ribozyme fitness (log ratio)” value was at most -4.2.
For A28U U109A A137G G143A U146G, the “polymerase ribozyme fitness (log ratio)” value was at most -4.2.
In the case of A28U G88A G94A C99G C103G U104A A107G, the “polymerase ribozyme fitness (log ratio)” value is reported as at most -4.2.
For A29C U53A A73C G84C C103G A107U U134G, the “polymerase ribozyme fitness (log ratio)” value was at most -4.2.
In the case of A29G G48A C96A, the “polymerase ribozyme fitness (log ratio)” value is reported as at most -4.2.
In the case of A28U U53A A64C G74C C87A C108U G112A C116U A138U A142U, the “polymerase ribozyme fitness (log ratio)” value is reported as at most -4.2.
With A29C A47C A60G G83U A120U the “polymerase ribozyme fitness (log ratio)” value was at most -4.2.
In the case of A29C A52C G88U, the “polymerase ribozyme fitness (log ratio)” value is reported as at most -4.2.
For A29C A47G G70C C96U G100A, the “polymerase ribozyme fitness (log ratio)” value was at most -4.2.
With A29G C63G C99G A106C the “polymerase ribozyme fitness (log ratio)” value was at most -4.2.
With A29G C99G C125U the “polymerase ribozyme fitness (log ratio)” value was at most -4.2.
In the case of A29U C43G G58A G86A U90G C105A C149U, the “polymerase ribozyme fitness (log ratio)” value is reported as at most -4.2.
For A29G U56A U77C, the “polymerase ribozyme fitness (log ratio)” value was at most -4.2.
With A29G A52C G67C C75U U77A A91G C93U A137U A150G the “polymerase ribozyme fitness (log ratio)” value was at most -4.2.
For A29G G42A U53G C75G C87U C93U C114U, the “polymerase ribozyme fitness (log ratio)” value was at most -4.2.
In the case of A29G G34A A39U C72A U82G C96G, the “polymerase ribozyme fitness (log ratio)” value is reported as at most -4.2.
With A29C U33G G42C A52C C76U G84A G100C the “polymerase ribozyme fitness (log ratio)” value was at most -4.2.
In the case of A29C A66G C75G C93G C99A G124A G128U, the “polymerase ribozyme fitness (log ratio)” value is reported as at most -4.2.
With A28U C123U the “polymerase ribozyme fitness (log ratio)” value was at most -4.2.
For A28U C57U U90C C95A C116G, the “polymerase ribozyme fitness (log ratio)” value was at most -4.2.
For A28U C95A, the “polymerase ribozyme fitness (log ratio)” value was -3.41.
With A29C G46A U53A G68C C75A the “polymerase ribozyme fitness (log ratio)” value was at most -4.2.
In the case of A29U C32G C79U U130G, the “polymerase ribozyme fitness (log ratio)” value is reported as at most -4.2.
In the case of A29C C38U G92C C114G C116A G143C, the “polymerase ribozyme fitness (log ratio)” value is reported as at most -4.2.
For A29C G68C A142U, the “polymerase ribozyme fitness (log ratio)” value was at most -4.2.
For A29G G50C C96G U102A A150U, the “polymerase ribozyme fitness (log ratio)” value was at most -4.2.
With A29U C85G C129A G141C the “polymerase ribozyme fitness (log ratio)” value was at most -4.2.
In the case of A29C C79U C85U C96A G128A U135A U148G, the “polymerase ribozyme fitness (log ratio)” value is reported as at most -4.2.
In the case of A29G C54G G88U G94U C114U A138G, the “polymerase ribozyme fitness (log ratio)” value is reported as at most -4.2.
In the case of A29C C38G G65U U77A G81C A137G, the “polymerase ribozyme fitness (log ratio)” value is reported as at most -4.2.
With A28U U31A A39G A41C C75G C76U G83U the “polymerase ribozyme fitness (log ratio)” value was at most -4.2.
With A29U C32G G88C C95G U135C the “polymerase ribozyme fitness (log ratio)” value was at most -4.2.
For A28U C85G, the “polymerase ribozyme fitness (log ratio)” value was at most -4.2.
With A29C U101A U102C G141A the “polymerase ribozyme fitness (log ratio)” value was at most -4.2.
For A29C G58U A60U G80C C95A, the “polymerase ribozyme fitness (log ratio)” value was at most -4.2.
For A29C U45A C95G, the “polymerase ribozyme fitness (log ratio)” value was at most -4.2.
For A29U A52G U55C U134A, the “polymerase ribozyme fitness (log ratio)” value was at most -4.2.
With A29G U45A A107G A115G the “polymerase ribozyme fitness (log ratio)” value was at most -4.2.
With A29C A49C U56G G62U G80A C95G C105G G126A G140U the “polymerase ribozyme fitness (log ratio)” value was at most -4.2.
With A29C A37C G74A A97G U130A the “polymerase ribozyme fitness (log ratio)” value was at most -4.2.
In the case of A29U G50C A52C A64C U77C G92C G94A C95A A115C U139G, the “polymerase ribozyme fitness (log ratio)” value is reported as at most -4.2.
For A29G A41C A47G C85G G92U U104G A137G G141U, the “polymerase ribozyme fitness (log ratio)” value was at most -4.2.
For A29G U109G U135C G136A G141U, the “polymerase ribozyme fitness (log ratio)” value was at most -4.2.
For A29C C35U U44C C57A C87A A97C C105U, the “polymerase ribozyme fitness (log ratio)” value was at most -4.2.
In the case of A28U C87G C93A C103G G143C, the “polymerase ribozyme fitness (log ratio)” value is reported as at most -4.2.
In the case of A29U C38U G46A A60U C95A G126U, the “polymerase ribozyme fitness (log ratio)” value is reported as at most -4.2.
In the case of A28U G88A A107G A142C U151A, the “polymerase ribozyme fitness (log ratio)” value is reported as at most -4.2.
With A28U U61A C76A C87U G88C U135C the “polymerase ribozyme fitness (log ratio)” value was at most -4.2.
For A29C A49G G50C C76A G124A U135G, the “polymerase ribozyme fitness (log ratio)” value was at most -4.2.
For A29G U61G C72G, the “polymerase ribozyme fitness (log ratio)” value was at most -4.2.
In the case of A29U C43U U45A A110C, the “polymerase ribozyme fitness (log ratio)” value is reported as at most -4.2.
For A28U U56A C76U G94C G112A, the “polymerase ribozyme fitness (log ratio)” value was at most -4.2.
In the case of A28U G42A U53A G67C G81A G94A A115U A142C U148C, the “polymerase ribozyme fitness (log ratio)” value is reported as at most -4.2.
With A29U C85U U139A the “polymerase ribozyme fitness (log ratio)” value was at most -4.2.
With A29C C51A C69U C79A G83C C85U C132U U151C the “polymerase ribozyme fitness (log ratio)” value was at most -4.2.
In the case of A28U G81U U82C G92A C108A G112U U135A, the “polymerase ribozyme fitness (log ratio)” value is reported as at most -4.2.
For A29G A41G G59C C93U G94A, the “polymerase ribozyme fitness (log ratio)” value was at most -4.2.
With A29C G58C G74C the “polymerase ribozyme fitness (log ratio)” value was at most -4.2.
In the case of A29C C63U A89G A107U A122G U130A A147U, the “polymerase ribozyme fitness (log ratio)” value is reported as at most -4.2.
For A29C G92A G143C U146C, the “polymerase ribozyme fitness (log ratio)” value was at most -4.2.
For A29G C76G C93U, the “polymerase ribozyme fitness (log ratio)” value was at most -4.2.
In the case of A28U C57G G65U G83A A89U A98U C118A, the “polymerase ribozyme fitness (log ratio)” value is reported as at most -4.2.
With A29U C132U the “polymerase ribozyme fitness (log ratio)” value was at most -4.2.
In the case of A29C C51A, the “polymerase ribozyme fitness (log ratio)” value is reported as at most -4.2.
In the case of A28U G50A U55A A66C C69G G100A U101A A110U, the “polymerase ribozyme fitness (log ratio)” value is reported as at most -4.2.
With A29C A52G C87U G100C A138U U139A A147C the “polymerase ribozyme fitness (log ratio)” value was at most -4.2.
With A29C A41U G81C G86C C105G A106U the “polymerase ribozyme fitness (log ratio)” value was at most -4.2.
With A29C U53A C57U C76U U82A G83A C114U G143U the “polymerase ribozyme fitness (log ratio)” value was at most -4.2.
In the case of A28U U127C, the “polymerase ribozyme fitness (log ratio)” value is reported as at most -4.2.
With A29G A60C A97G G100U A121G the “polymerase ribozyme fitness (log ratio)” value was at most -4.2.
For A28U U45A G48U A98G, the “polymerase ribozyme fitness (log ratio)” value was at most -4.2.
In the case of A28U G100C U102A, the “polymerase ribozyme fitness (log ratio)” value is reported as at most -4.2.
In the case of A29U C36A G65C C79A G86A G141C, the “polymerase ribozyme fitness (log ratio)” value is reported as at most -4.2.
For A29C G58U U145A, the “polymerase ribozyme fitness (log ratio)” value was at most -4.2.
For A29U A73G G80A, the “polymerase ribozyme fitness (log ratio)” value was at most -4.2.
For A28U G67U C103A, the “polymerase ribozyme fitness (log ratio)” value was at most -4.2.
In the case of A29G U61A G94U G126U G133U U151G, the “polymerase ribozyme fitness (log ratio)” value is reported as at most -4.2.
In the case of A29U A52C U53A G80A C93G C108U A121C C149G, the “polymerase ribozyme fitness (log ratio)” value is reported as at most -4.2.
For A29G C54A C79A G94C G136C, the “polymerase ribozyme fitness (log ratio)” value was at most -4.2.
In the case of A29U C85G C118U, the “polymerase ribozyme fitness (log ratio)” value is reported as at most -4.2.
In the case of A29C A91C C93A G117U, the “polymerase ribozyme fitness (log ratio)” value is reported as at most -4.2.
In the case of A29U C76A C85A C108U C116A, the “polymerase ribozyme fitness (log ratio)” value is reported as at most -4.2.
In the case of A29U C51U G81U C93A G100A, the “polymerase ribozyme fitness (log ratio)” value is reported as at most -4.2.
